Measured values as given in PubChem BioAssay AID1721 (National Center for Advancing Translational Sciences (NCATS), 2009).
In all, about 290,000 compounds went through this assay and about 1,100 (0.38%) were called active. Inconclusive results, whose numbers are uncertain, are shown with a selection of clear calls. Calls follow the shape of the dose curve; as a rule, active = well fitted inhibition curve with a large enough effect; inconclusive = small, poorly fitted or top-dose-only effect, or another doubt; inactive = no such curve, though single readings can be large or run the other way. Potencies of inconclusive entries are doubtful fits and often do not repeat.

Each compound was assayed against Pyruvate kinase (Leishmania mexicana) (UniProt Q27686) (assay: qHTS Assay for Inhibitors of Leishmania Mexicana Pyruvate Kinase (LmPK)). Settings: purified LmPK, Kinase-Glo ATP luminescence, 1 h; series mostly up to 57.5 µM.
Sequence of UniProt Q27686 (Q27686 whole entry, looked up): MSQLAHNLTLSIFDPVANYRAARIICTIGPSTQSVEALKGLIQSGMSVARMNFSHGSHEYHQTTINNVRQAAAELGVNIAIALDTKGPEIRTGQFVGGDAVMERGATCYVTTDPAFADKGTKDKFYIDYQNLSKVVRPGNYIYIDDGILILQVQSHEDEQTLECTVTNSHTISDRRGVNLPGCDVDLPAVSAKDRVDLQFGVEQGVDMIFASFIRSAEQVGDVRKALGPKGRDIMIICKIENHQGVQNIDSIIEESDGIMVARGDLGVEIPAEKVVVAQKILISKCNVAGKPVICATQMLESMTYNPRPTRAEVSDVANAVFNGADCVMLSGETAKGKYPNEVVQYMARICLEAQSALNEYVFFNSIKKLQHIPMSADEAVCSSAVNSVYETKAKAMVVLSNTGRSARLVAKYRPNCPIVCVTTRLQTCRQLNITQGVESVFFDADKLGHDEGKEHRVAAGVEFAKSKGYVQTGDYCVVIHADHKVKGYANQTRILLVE
Source text: NIH Chemical Genomics Center [NCGC] Malcolm Walkinshaw, Hugh Morgan, Linda Gilmore University of Edinburgh, UK MLPCN Grant: 1 R03 MH085697-01 NCGC Assay Overview: Pyruvate kinase (L. Mexicana) (LmPK) enzyme was supplied as a highly purified (>95% pure) sulphate-free preparation from University of Edinburgh, UK and assayed for its ability to generate ATP from ADP using phosphoenolpyruvate (PEP) as a substrate. ATP generation was detected in a coupled reaction by luciferase-mediated luminescence, an ATP-dependent process. […] The enzyme was assayed at an intermediate level of activity to screen for both inhibitors and activators.
NCGC Assay Protocol Summary: Three uL of enzyme mix (kept on ice) in assay buffer (50 mM Imidazole pH7.2, 50 mM KCl, 7 mM MgCl2, 0.01% Tween 20, 0.05% BSA) containing PEP (0.5 mM final concentration) and LmPK (0.1 nM final concentration) was dispensed into white solid bottom 1,536 well microtiter plates. 23 nL of compound were delivered by a pin tool and 1 uL of ADP mix in assay buffer (r.t; 0.1 mM final ADP concentration) was added. Plates were incubated at room temperature for 1 hour. Two uL of detection mix (Kinase-Glo, Promega; at 4 degree Celsius protected from light) was added and luminescence read by a ViewLux (Perkin Elmer) at 1 second exposure/plate. Data were normalized to the uninhibited and AC100 inhibition (no enzyme). To monitor activation, the first column contained a five-fold concentration of LmPK (0.5 nM).
Potency is read from the fitted curve at half-maximal effect; tags tell the direction and shape of the fitted curve.

Compound | Potency
S=c1[nH]nc(COc2ccccc2)n1-c1ccccc1 | inconclusive: 28.2 µM [falling, partial curve]
CN(C)CCCn1c(-c2ccccc2)nc(=S)c2c1CCCC2 | inactive
O=C(c1ccc(-c2nnc(-c3ccccc3)o2)cc1)N1CCCCCC1 | inconclusive: 12.6 µM [falling, partial curve]
O=c1c2ccccc2nc(N/N=C/c2ccc(O)cc2)n1O | inconclusive: 8.91 µM [falling, partial curve]
CCOC(=O)/C=C/C(=O)N1CCc2ccccc21 | inconclusive: 22.4 µM [falling, single point]
CCNc1c(C(=O)O)ccc2c1C(=O)c1ccccc1C2=O | inconclusive: 15.8 µM [falling, partial curve]
Oc1cccc(/C=N/Nc2cccc3cccnc23)c1 | inconclusive: 28.2 µM [falling, partial curve]
O=C1NC(c2cccnc2)Nc2sc3c(c21)CCCC3 (stereo not given) | inactive
Cn1c(C(=O)O)cc2c(=O)n3ccccc3nc21 | inconclusive: 25.1 µM [falling, single point]
O=C1/C(=C/c2cccnc2)Sc2ccccc21 | inconclusive: 14.1 µM [falling, partial curve]
COC(=O)c1sccc1NC(=O)Nc1ccc(OC)cc1 | inconclusive: 25.1 µM [falling, partial curve]
Cc1ncoc1C(=O)Nc1ncc([N+](=O)[O-])s1 | inconclusive: 25.1 µM [falling, single point]
Cc1cccc(NCc2ccc(N(C)C)cc2)n1 | inactive
Cc1cc2nc3ccc(=[N+](C)C)cc-3sc2cc1N | active: 14.1 µM
Cn1cc(Cl)c(-c2n[nH]c(=S)n2C2CCCCC2)n1 | active: 20 µM
Cc1cc(C(=O)COC(=O)C2CC2)c(C)n1-c1ccc(F)cc1 | inconclusive: 20 µM [falling, partial curve]
O=C(N=C1SC2CS(=O)(=O)CC2N1c1cc(Cl)ccc1Cl)C1CCCO1 (stereo not given) | inactive
CCOC(=O)c1[nH]cnc1N=Nc1c(O)ccc2ccccc12 | inconclusive: 25.1 µM [falling, partial curve]
O=C(Nc1ccc2c(c1)OCCO2)c1ccco1 | active: 25.1 µM
CCC(=O)Nc1ccc2oc(-c3cccc(C)c3)nc2c1 | inconclusive: 7.94 µM [falling, full curve]
CCOC(=O)c1c(OCC)[nH]c2c1cc(O)c1ccccc12 | inconclusive: 7.08 µM [falling, partial curve]
Cc1ccc(-c2c[nH]c(=S)n2-c2ccccc2)cc1 | inconclusive: 11.2 µM [falling, partial curve]
COc1ccc2[nH]c3c(NCCCOC(C)C)ncnc3c2c1 | inconclusive: 15.8 µM [falling, partial curve]
COc1cc(CN2CCSCC2)cc(OC)c1OC | inconclusive: 39.8 µM [falling, single point]
Cn1c(=O)c2nncnc2n(C)c1=O | inactive
S=c1[nH]nc(C23CC4CC(CC(C4)C2)C3)n1Cc1ccco1 | inconclusive: 12.6 µM [falling, partial curve]
Clc1ccc2nc(CSc3ccccc3)cn2c1 | inconclusive: 12.6 µM [falling, partial curve]

Compound | Potency
c1ccc2nc(-c3nc4ccccc4[nH]3)ccc2c1 | active: 4.47 µM
COC(=O)c1sc(NC(=O)c2ccc(C)o2)nc1C | inconclusive: 14.1 µM [falling, partial curve]
C=CCn1c(-c2ccc3ncccc3c2)n[nH]c1=S | inconclusive: 25.1 µM [falling, single point]
COc1ccc(C/C(=N\OC(C)=O)c2ccc(OC)cc2)cc1 | inconclusive: 20 µM [falling, partial curve]
Cc1cccc(CNC(=O)c2ccccc2NC(=O)C2=CSCCO2)c1 | inactive
COC(=O)CN1C(=O)[C@H]2[C@@H](c3ccc(C)o3)N3C(=O)CN(Cc4ccc(-c5ccccc5)cc4)C(=O)[C@@]3(C)[C@H]2C1=O | inactive
CCc1c(-c2n[nH]c(=S)n2Cc2ccccc2)csc1C | inconclusive: 25.1 µM [falling, single point]
COc1cc(-c2nc(-c3ccc(-c4ccccc4)nc3OC)no2)cc(OC)c1OC | inactive
CN(C)NC1CCS(=O)(=O)C1 (stereo not given) | inactive
O=c1c2c(-c3ccccc3)csc2ncn1/N=C/c1cccc([N+](=O)[O-])c1O | inconclusive: 12.6 µM [falling, partial curve]
Cc1cc(=O)n2[nH]c(-c3ccc(F)cc3)nc2n1 | inconclusive: 28.2 µM [falling, single point]
CC(C)N(C(=O)Cn1c(-c2ccccc2Cl)nc2ccccc21)c1ccccc1 | inactive
O=C(c1ccc2c3n(nc2c1)-c1ccccc1CO3)N1CCCCC1 | active: 6.31 µM
CCN(CC)c1ccc(/C=C2\CCC(/C=C(\C#N)C(=O)Nc3ccccc3F)=C2N2CCOCC2)cc1 | active: 11.2 µM
CC(C)Cn1c(-c2ccc(F)cc2)n[nH]c1=S | inconclusive: 25.1 µM [falling, partial curve]
CC(C)(C)c1cc(NC(=O)c2ccco2)no1 | inconclusive: 14.1 µM [falling, partial curve, poor fit]
O=C1ON=C(c2ccccc2)/C1=C/c1ccc(O)c(O)c1 | inconclusive: 3.16 µM [falling, full curve]
O=C(Nc1cnc2sccn2c1=O)c1ccccc1Cl | inconclusive: 12.6 µM [falling, partial curve]
Brc1ccc(OCc2cn3ccccc3n2)cc1 | inconclusive: 31.6 µM [falling, single point]
CC(C)C1COC(c2cccc3ccccc23)=N1 (stereo not given) | inconclusive: 35.5 µM [falling, single point]
Cc1ccc(-n2c(C)cc(/C=C3/C(=O)NC(=O)N(C)C3=O)c2C)cc1 | inactive
O=C1c2ccccc2C(=O)C1c1ccc2ccccc2n1 | active: 14.1 µM
CC(C)(C)C(=O)N1CCc2cc(-c3csc(N)n3)ccc21 | inconclusive: 35.5 µM [falling, single point]
Cc1ccccc1NC1=C/C(=N\S(=O)(=O)c2cccs2)c2ccccc2C1=O | inconclusive: 31.6 µM [falling, single point]
CC(=O)NC(CSC(CC(=O)c1ccco1)c1ccc(C)cc1)C(=O)O (stereo not given) | inconclusive: 20 µM [falling, partial curve]
O=C(N/N=C/c1ccc([N+](=O)[O-])cc1)c1[nH]ncc1Br | inconclusive: 11.2 µM [falling, partial curve]
CC1=NN(C(=O)c2ccc(C)cc2)C(O)(C(F)(F)OC(F)(F)F)C1 (stereo not given) | inactive

Compound | Potency
Cc1cc(O)ccc1Nc1nc(-c2cccs2)cs1 | inconclusive: 31.6 µM [falling, single point]
Cc1ccc(NC(=O)Cc2c[nH]c3ccccc23)cc1S(=O)(=O)N1CCCCCC1 | inactive
Cc1oncc1C(=O)Nc1ccc(C(F)(F)F)cc1 | inconclusive: 17.8 µM [falling, single point]
O=[N+]([O-])c1cccc(/C=N/Nc2ccccn2)c1 | inactive
COc1ccc(C)cc1-n1c(-c2ccncc2)n[nH]c1=S | active: 10 µM
CCOc1ccc(NC(=O)CCN2CCCCC2)cc1 | inactive
CC1=C/C(=N\N=C2\NC(=O)C(CC(=O)Nc3ccccc3)S2)CC(C)(C)C1 (stereo not given) | inactive
O=C(O)C1Cc2ccccc2CN1S(=O)(=O)/C=C/c1ccccc1 (stereo not given) | inconclusive: 31.6 µM [falling, single point]
CCn1c(-c2csc3c2CCC(C)C3)n[nH]c1=S (stereo not given) | inconclusive: 15.8 µM [falling, partial curve]
O=C(/C=C/c1ccc(Br)cc1)NC(=S)N1CCOCC1 | inconclusive: 39.8 µM [falling, single point]
Cc1cc(C(=O)N/N=C/c2ccc(N3CCOCC3)cc2)c(C)o1 | inconclusive: 20 µM [falling, single point]
O=c1c2ccccc2cnn1Cc1n[nH]c(=S)n1-c1ccccc1Cl | inconclusive: 25.1 µM [falling, partial curve]
O=C(N/C=C/c1ccco1)Nc1cccc(Cl)c1 | inactive
O=C1/C(=C/c2ccncc2)N=C2CCCCCN12 | inactive
O=C(C1CCN(C2CC(=O)N(c3cccc(Cl)c3)C2=O)CC1)N1CCCCCC1 (stereo not given) | inactive
Cc1nnc(SCC2=C(C(=O)O)N3C(=O)C(NC(=O)c4cccc(F)c4F)C3SC2)s1 (stereo not given) | inactive
O=C(Nc1ccc2c(c1)OCO2)c1cccc(Cl)c1 | inconclusive: 14.1 µM [falling, partial curve]
Cc1cc(NC(=O)c2ccco2)ccc1NC(=O)c1ccco1 | inconclusive: 17.8 µM [falling, partial curve]
COc1ccccc1CNC(=O)c1ccc(OC(C)C)cc1 | inactive
O=C(Nc1ccc2c(c1)OCCO2)c1ccccc1 | inconclusive: 22.4 µM [falling, single point]
Cc1ccnc(NC(=O)CCNC(=O)c2ccc(Cl)cc2)c1 | inactive
CC1CCc2sc(-c3n[nH]c(=S)o3)cc2C1 (stereo not given) | inconclusive: 31.6 µM [falling, single point]
COc1ccccc1-c1nc(-c2ccccn2)no1 | active: 4.47 µM
Brc1ccc(-c2nc3ccccc3s2)s1 | active: 28.2 µM
CCOC(=O)c1ccc(NC(=O)NCc2ccccc2)cc1 | inactive
Cc1nc(N)sc1C(=O)Nc1ccccc1 | inconclusive: 25.1 µM [falling, partial curve]
